Reference: the supplement of paper PMC3724861
This is one part of the list.

system: T1, Caupolican (Caup) homeodomain DNA-binding domain; assay: PBM E-score (8-mer, recovered from the published 9-mer minima) (E-score (dimensionless, -0.5 to 0.5)); Drosophila protein; higher = stronger relative binding preference, active = 0.31 or more
T1 sequence: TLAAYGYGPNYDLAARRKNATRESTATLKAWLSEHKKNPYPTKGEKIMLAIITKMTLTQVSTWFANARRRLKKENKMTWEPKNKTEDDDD
Procedure, shortened: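 Caup's homeodomain DNA-binding domain (residues 214-303) was produced by in vitro transcription and translation and applied at 100 nM to custom-designed protein binding microarrays. Each value is an enrichment score giving relative binding preference for a short DNA word; higher means stronger. Published 9-mer scores were the minimum of their two constituent 8-mer scores, and the 8-mer values were recovered from those minima. A cutoff of 0.31 marks candidate binding sequences.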

Sequence | PBM E-score
GCACATGA | inactive: 0.182
CCCGGTCA | inactive: -0.117
AGAAAACC | inactive: -0.0816
GGAATACC | inactive: 0.00893
GCTATTAA | inactive: 0.0366
GTTGTCAA | active: 0.339
ACATAGCT | inactive: 0.125
ATTCTGTC | inactive: 0.06
CGCTTTAA | inactive: -0.0899
AATGTCAC | inactive: 0.303
GTCTCTGA | inactive: -0.0754
ACAACCGT | inactive: 0.227
ACTCGAAA | inactive: 0.00733
ACGTCCGC | inactive: -0.0978
TACATCTA | inactive: 0.298
GAGAGACC | inactive: -0.184
CGTAACAA | inactive: 0.243
CGAAGGAG | inactive: -0.108
ACGAGTCG | inactive: -0.00173
ATAAACTA | inactive: 0.219
TTGACCAA | inactive: 0.0404
ACAACCTA | inactive: 0.263
ACATGGCC | inactive: 0.246

Sequence | PBM E-score
AGCGGATG | inactive: -0.0396
ATACACGG | inactive: 0.299
GACAACCC | inactive: 0.12
GACTTTCA | inactive: -0.0584
ATGTAAAT | active: 0.352
AAATGATA | inactive: 0.146
TGATAGCA | inactive: 0.0376
CTGTCCGC | inactive: -0.11
CTAATTAG | inactive: 0.177
AGGGGCCC | inactive: -0.238
GCACAAGC | inactive: -0.0303
CACGATCC | inactive: 0.104
CCGAAGGA | inactive: -0.181
CGGCACTC | inactive: -0.151
AGAGCTAC | ≥ 0.0656
ATTCAGAA | inactive: -0.0733
ACTATTCA | inactive: 0.0869
CGGTGCAC | inactive: -0.0731
CTATAGCC | inactive: -0.199
CCGAGACA | inactive: 0.0329
CCGTATAC | inactive: 0.0248
CATGGCCC | inactive: -0.169
ATCCGGTG | inactive: 0.0268

Sequence | PBM E-score
AAGCGCTT | ≥ -0.0194
TCCGTTAA | inactive: 0.0513
CTTATGTC | inactive: 0.224
TAGGTTAA | inactive: 0.0795
CAACCGCC | inactive: -0.107
GGGACAAA | inactive: 0.0576
CTCCAGAC | inactive: -0.0913
CGGTTCCC | inactive: -0.195
CAAAGTCC | inactive: -0.123
GCCTAACC | inactive: -0.0216
TATGTGAA | inactive: 0.158
GTTGGCAA | inactive: 0.0592
AAGGTTCG | inactive: -0.111
AGATCAAG | inactive: -0.00423
TAGAGTAA | inactive: 0.0783
AACTAATA | ≥ 0.215
CCAGGTAA | inactive: 0.0876
ACGTATCA | ≥ 0.152
CCGTGTCC | inactive: 0.218
CAGCAGAC | inactive: -0.0873
CGGAGAAA | inactive: -0.135
AACCTGCC | inactive: -0.0741
CCAGGTAC | inactive: 0.0541

Sequence | PBM E-score
GCACATAA | inactive: 0.0651
CCCCTTCG | inactive: -0.25
CAGCGCCG | inactive: -0.268
ACAAAATC | inactive: 0.107
ACTTGATG | inactive: 0.15
CGAGTAGA | inactive: -0.0986
AAGGGACG | inactive: -0.128
ACAAAAGT | inactive: 0.149
TAAAGGCA | inactive: 0.0348
CAAAGCCG | inactive: -0.114
GGGAATCA | inactive: 0.0611
GTGGCCAA | inactive: -0.0292
GGCCTTTA | inactive: -0.148
GATGGGGA | inactive: -0.0926
GAAGTAGC | inactive: -0.113
AACCACAT | ≥ 0.212
CGCTAGGA | inactive: -0.157
CCTTAAGG | inactive: -0.154
CGCATACG | inactive: -0.109
GGGTTGAA | inactive: -0.00186
ATCAGTCC | inactive: -0.143
ACCTGCGT | ≥ -0.0018
CCGCGTGC | inactive: -0.135

Sequence | PBM E-score
CATACCAC | inactive: 0.0536
AGGTTCAT | inactive: -0.094
CGTAACTC | inactive: -0.0401
AGAAGACC | inactive: -0.152
CACATGGC | inactive: -0.0837
GATTAAAA | inactive: 0.166
AAGTTACA | inactive: 0.261
CTACACGC | inactive: 0.21
CTGTACTA | inactive: 0.156
ACAAATGG | inactive: 0.193
AGCTATCC | inactive: -0.126
AGTCGCGA | inactive: -0.0131
TAGTGTGA | inactive: 0.108
ATGCCAAG | inactive: 0.0126
ACGGGTTA | inactive: -0.00854
CCAACTCG | inactive: -0.0676
CCCGAGGC | inactive: -0.273
CTATGGCC | inactive: -0.0994
TCCATAGA | inactive: 0.00334
GTACACTA | inactive: 0.208
